Here are results for eleven sequences from the supplement of paper PMC12230231.

± gives the standard deviation of the averaged measurements. Restriction of a single-cycle SIVsab GFP reporter by TRIM5α v1-loop variants in CRFK cells. Human variants: read share among cells still uninfected after two challenges over input, higher = gained restriction. Rhesus variants: share among infected cells over input, higher = lost restriction. Reporter dose not given per row. No active / inactive call per row; the paper calls a change when both replicates lie above its controls (mean + 2 SD of stop or wild-type variants, or the top frameshift score). Residues outside the varied loop are taken from Swiss-Prot. The paper reads the human single-substitution scores as noise; they and the rhesus combinations repeat poorly (rank correlation 0.3 to 0.4), indel scores repeat only for the top variants, rhesus substitutions well (0.9).

For this data set, the system named is SIVsab (simian immunodeficiency virus of sabaeus monkeys), single-cycle GFP reporter, in CRFK cells. In words: enrichment among infected cells over input (fold); higher = weaker restriction. The settings on record: library: human / rhesus combinations. On the procedure: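 Pools of CRFK cells expressing variants of the TRIM5α v1 loop were challenged with the single-cycle reporter, sorted by GFP and sequenced; mean of two replicates.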
As for “MASGILLNVKEEVTCPICLELLTEPLSLHCGHSFCQACITANHKKSMLYKEGERSCPVCRISYQPENIQPNRHVANIVEKLREVKLSPEEGQKVDHCARHGEKLLLFCQEDSKVICWLCERSQEHRGHHTFLMEEVAQEYHVKLQTALEMLRQKQQEAEKLEADIREEKASWKIQIDYDKTNVSADFEQLREILDWEESNELQNLEKEEEDILKSLTKSETEMVQQTQYMRELISELEHRLQGSMMDLLQGVDGIIKRIENMTLKKPKTFHKNQRRVFRAPDLKGMLDMFRELTDARRYWVDVTLAPNNISHAVIAEDKRQVSSRNPQIMYQAPGTLYTFPSFVNFNYCTGVLGSQSITSGKHYWEVDVSKKSAWILGVCAGFQSDAMYNIEQNENYQPKYGYWVIGLQEGVKYSVFQDGSSHTPFAPFIVPLSVIICPDRVGVFVDYEACTVSFFNITNHGFLIYKFSQCSFSKPVFPYLNPRKCTVPMTLCSPSS [rhesus TRIM5α, 332-344 = QAPGTLYTFPSFV]”, the enrichment is 1.76 ± 1.3.

“MASGILLNVKEEVTCPICLELLTEPLSLHCGHSFCQACITANHKKSMLYKEGERSCPVCRISYQPENIQPNRHVANIVEKLREVKLSPEEGQKVDHCARHGEKLLLFCQEDSKVICWLCERSQEHRGHHTFLMEEVAQEYHVKLQTALEMLRQKQQEAEKLEADIREEKASWKIQIDYDKTNVSADFEQLREILDWEESNELQNLEKEEEDILKSLTKSETEMVQQTQYMRELISELEHRLQGSMMDLLQGVDGIIKRIENMTLKKPKTFHKNQRRVFRAPDLKGMLDMFRELTDARRYWVDVTLAPNNISHAVIAEDKRQVSSRNPQIMYQAPGTLYTFPTFTNFNYCTGVLGSQSITSGKHYWEVDVSKKSAWILGVCAGFQSDAMYNIEQNENYQPKYGYWVIGLQEGVKYSVFQDGSSHTPFAPFIVPLSVIICPDRVGVFVDYEACTVSFFNITNHGFLIYKFSQCSFSKPVFPYLNPRKCTVPMTLCSPSS [rhesus TRIM5α, 332-344 = QAPGTLYTFPTFT]”: the enrichment came out at 2.26 ± 1.1.

Turning to “MASGILLNVKEEVTCPICLELLTEPLSLHCGHSFCQACITANHKKSMLYKEGERSCPVCRISYQPENIQPNRHVANIVEKLREVKLSPEEGQKVDHCARHGEKLLLFCQEDSKVICWLCERSQEHRGHHTFLMEEVAQEYHVKLQTALEMLRQKQQEAEKLEADIREEKASWKIQIDYDKTNVSADFEQLREILDWEESNELQNLEKEEEDILKSLTKSETEMVQQTQYMRELISELEHRLQGSMMDLLQGVDGIIKRIENMTLKKPKTFHKNQRRVFRAPDLKGMLDMFRELTDARRYWVDVTLAPNNISHAVIAEDKRQVSSRNPQIMYQAPGTLYTFPTFVNFNYCTGVLGSQSITSGKHYWEVDVSKKSAWILGVCAGFQSDAMYNIEQNENYQPKYGYWVIGLQEGVKYSVFQDGSSHTPFAPFIVPLSVIICPDRVGVFVDYEACTVSFFNITNHGFLIYKFSQCSFSKPVFPYLNPRKCTVPMTLCSPSS [rhesus TRIM5α, 332-344 = QAPGTLYTFPTFV]”, the enrichment amounted to 0.813 ± 0.17.

For “MASGILLNVKEEVTCPICLELLTEPLSLHCGHSFCQACITANHKKSMLYKEGERSCPVCRISYQPENIQPNRHVANIVEKLREVKLSPEEGQKVDHCARHGEKLLLFCQEDSKVICWLCERSQEHRGHHTFLMEEVAQEYHVKLQTALEMLRQKQQEAEKLEADIREEKASWKIQIDYDKTNVSADFEQLREILDWEESNELQNLEKEEEDILKSLTKSETEMVQQTQYMRELISELEHRLQGSMMDLLQGVDGIIKRIENMTLKKPKTFHKNQRRVFRAPDLKGMLDMFRELTDARRYWVDVTLAPNNISHAVIAEDKRQVSSRNPQIMYQAPGTLYTFPTLVNFNYCTGVLGSQSITSGKHYWEVDVSKKSAWILGVCAGFQSDAMYNIEQNENYQPKYGYWVIGLQEGVKYSVFQDGSSHTPFAPFIVPLSVIICPDRVGVFVDYEACTVSFFNITNHGFLIYKFSQCSFSKPVFPYLNPRKCTVPMTLCSPSS [rhesus TRIM5α, 332-344 = QAPGTLYTFPTLV]”, the enrichment is 1.79 ± 0.64.

In the case of “MASGILLNVKEEVTCPICLELLTEPLSLHCGHSFCQACITANHKKSMLYKEGERSCPVCRISYQPENIQPNRHVANIVEKLREVKLSPEEGQKVDHCARHGEKLLLFCQEDSKVICWLCERSQEHRGHHTFLMEEVAQEYHVKLQTALEMLRQKQQEAEKLEADIREEKASWKIQIDYDKTNVSADFEQLREILDWEESNELQNLEKEEEDILKSLTKSETEMVQQTQYMRELISELEHRLQGSMMDLLQGVDGIIKRIENMTLKKPKTFHKNQRRVFRAPDLKGMLDMFRELTDARRYWVDVTLAPNNISHAVIAEDKRQVSSRNPQIMYQAPGTLYTFQSFTNFNYCTGVLGSQSITSGKHYWEVDVSKKSAWILGVCAGFQSDAMYNIEQNENYQPKYGYWVIGLQEGVKYSVFQDGSSHTPFAPFIVPLSVIICPDRVGVFVDYEACTVSFFNITNHGFLIYKFSQCSFSKPVFPYLNPRKCTVPMTLCSPSS [rhesus TRIM5α, 332-344 = QAPGTLYTFQSFT]”, the enrichment worked out at 0.725 ± 0.066.

As for “MASGILLNVKEEVTCPICLELLTEPLSLHCGHSFCQACITANHKKSMLYKEGERSCPVCRISYQPENIQPNRHVANIVEKLREVKLSPEEGQKVDHCARHGEKLLLFCQEDSKVICWLCERSQEHRGHHTFLMEEVAQEYHVKLQTALEMLRQKQQEAEKLEADIREEKASWKIQIDYDKTNVSADFEQLREILDWEESNELQNLEKEEEDILKSLTKSETEMVQQTQYMRELISELEHRLQGSMMDLLQGVDGIIKRIENMTLKKPKTFHKNQRRVFRAPDLKGMLDMFRELTDARRYWVDVTLAPNNISHAVIAEDKRQVSSRNPQIMYQAPGTLYTFQSFVNFNYCTGVLGSQSITSGKHYWEVDVSKKSAWILGVCAGFQSDAMYNIEQNENYQPKYGYWVIGLQEGVKYSVFQDGSSHTPFAPFIVPLSVIICPDRVGVFVDYEACTVSFFNITNHGFLIYKFSQCSFSKPVFPYLNPRKCTVPMTLCSPSS [rhesus TRIM5α, 332-344 = QAPGTLYTFQSFV]”, the enrichment was 1.67 ± 0.88.

As for “MASGILLNVKEEVTCPICLELLTEPLSLHCGHSFCQACITANHKKSMLYKEGERSCPVCRISYQPENIQPNRHVANIVEKLREVKLSPEEGQKVDHCARHGEKLLLFCQEDSKVICWLCERSQEHRGHHTFLMEEVAQEYHVKLQTALEMLRQKQQEAEKLEADIREEKASWKIQIDYDKTNVSADFEQLREILDWEESNELQNLEKEEEDILKSLTKSETEMVQQTQYMRELISELEHRLQGSMMDLLQGVDGIIKRIENMTLKKPKTFHKNQRRVFRAPDLKGMLDMFRELTDARRYWVDVTLAPNNISHAVIAEDKRQVSSRNPQIMYQAPGTLYTFQSLVNFNYCTGVLGSQSITSGKHYWEVDVSKKSAWILGVCAGFQSDAMYNIEQNENYQPKYGYWVIGLQEGVKYSVFQDGSSHTPFAPFIVPLSVIICPDRVGVFVDYEACTVSFFNITNHGFLIYKFSQCSFSKPVFPYLNPRKCTVPMTLCSPSS [rhesus TRIM5α, 332-344 = QAPGTLYTFQSLV]”, the enrichment was 1.57 ± 0.28.

As to “MASGILLNVKEEVTCPICLELLTEPLSLHCGHSFCQACITANHKKSMLYKEGERSCPVCRISYQPENIQPNRHVANIVEKLREVKLSPEEGQKVDHCARHGEKLLLFCQEDSKVICWLCERSQEHRGHHTFLMEEVAQEYHVKLQTALEMLRQKQQEAEKLEADIREEKASWKIQIDYDKTNVSADFEQLREILDWEESNELQNLEKEEEDILKSLTKSETEMVQQTQYMRELISELEHRLQGSMMDLLQGVDGIIKRIENMTLKKPKTFHKNQRRVFRAPDLKGMLDMFRELTDARRYWVDVTLAPNNISHAVIAEDKRQVSSRNPQIMYQAPGTLYTFQTFTNFNYCTGVLGSQSITSGKHYWEVDVSKKSAWILGVCAGFQSDAMYNIEQNENYQPKYGYWVIGLQEGVKYSVFQDGSSHTPFAPFIVPLSVIICPDRVGVFVDYEACTVSFFNITNHGFLIYKFSQCSFSKPVFPYLNPRKCTVPMTLCSPSS [rhesus TRIM5α, 332-344 = QAPGTLYTFQTFT]”, the enrichment is 1.18 ± 0.53.

Consider “MASGILLNVKEEVTCPICLELLTEPLSLHCGHSFCQACITANHKKSMLYKEGERSCPVCRISYQPENIQPNRHVANIVEKLREVKLSPEEGQKVDHCARHGEKLLLFCQEDSKVICWLCERSQEHRGHHTFLMEEVAQEYHVKLQTALEMLRQKQQEAEKLEADIREEKASWKIQIDYDKTNVSADFEQLREILDWEESNELQNLEKEEEDILKSLTKSETEMVQQTQYMRELISELEHRLQGSMMDLLQGVDGIIKRIENMTLKKPKTFHKNQRRVFRAPDLKGMLDMFRELTDARRYWVDVTLAPNNISHAVIAEDKRQVSSRNPQIMYQAPGTLYTFQTFVNFNYCTGVLGSQSITSGKHYWEVDVSKKSAWILGVCAGFQSDAMYNIEQNENYQPKYGYWVIGLQEGVKYSVFQDGSSHTPFAPFIVPLSVIICPDRVGVFVDYEACTVSFFNITNHGFLIYKFSQCSFSKPVFPYLNPRKCTVPMTLCSPSS [rhesus TRIM5α, 332-344 = QAPGTLYTFQTFV]”, for which the enrichment was found to be 2.23 ± 2.

With “MASGILLNVKEEVTCPICLELLTEPLSLHCGHSFCQACITANHKKSMLYKEGERSCPVCRISYQPENIQPNRHVANIVEKLREVKLSPEEGQKVDHCARHGEKLLLFCQEDSKVICWLCERSQEHRGHHTFLMEEVAQEYHVKLQTALEMLRQKQQEAEKLEADIREEKASWKIQIDYDKTNVSADFEQLREILDWEESNELQNLEKEEEDILKSLTKSETEMVQQTQYMRELISELEHRLQGSMMDLLQGVDGIIKRIENMTLKKPKTFHKNQRRVFRAPDLKGMLDMFRELTDARRYWVDVTLAPNNISHAVIAEDKRQVSSRNPQIMYQAPGTLYTFQTLTNFNYCTGVLGSQSITSGKHYWEVDVSKKSAWILGVCAGFQSDAMYNIEQNENYQPKYGYWVIGLQEGVKYSVFQDGSSHTPFAPFIVPLSVIICPDRVGVFVDYEACTVSFFNITNHGFLIYKFSQCSFSKPVFPYLNPRKCTVPMTLCSPSS [rhesus TRIM5α, 332-344 = QAPGTLYTFQTLT]”, the enrichment was 1.23 ± 0.91.

For the sequence “MASGILLNVKEEVTCPICLELLTEPLSLHCGHSFCQACITANHKKSMLYKEGERSCPVCRISYQPENIQPNRHVANIVEKLREVKLSPEEGQKVDHCARHGEKLLLFCQEDSKVICWLCERSQEHRGHHTFLMEEVAQEYHVKLQTALEMLRQKQQEAEKLEADIREEKASWKIQIDYDKTNVSADFEQLREILDWEESNELQNLEKEEEDILKSLTKSETEMVQQTQYMRELISELEHRLQGSMMDLLQGVDGIIKRIENMTLKKPKTFHKNQRRVFRAPDLKGMLDMFRELTDARRYWVDVTLAPNNISHAVIAEDKRQVSSRNPQIMYQAPGTLYTFQTLVNFNYCTGVLGSQSITSGKHYWEVDVSKKSAWILGVCAGFQSDAMYNIEQNENYQPKYGYWVIGLQEGVKYSVFQDGSSHTPFAPFIVPLSVIICPDRVGVFVDYEACTVSFFNITNHGFLIYKFSQCSFSKPVFPYLNPRKCTVPMTLCSPSS [rhesus TRIM5α, 332-344 = QAPGTLYTFQTLV]”, the enrichment is 0.806 ± 0.26.
